Assay results: PubChem BioAssay AID1347073 (National Center for Advancing Translational Sciences (NCATS), 2019)
Among all 45,000 compounds or so, about 200 (0.44%) were called active. Another 7% or so got no clear call; they are omitted. Calls follow the shape of the dose curve; as a rule, active = well fitted activation curve with a large enough effect; inconclusive = small, poorly fitted or top-dose-only effect; inactive = no such curve, though single readings can be large or run the other way. The list shows a part of the results.

Test: qHTS of TDP-43 Inhibitors: NCGC Sytravon Library Screen; also: 0% is about no effect; nearly all actives have a fitted effect of over 55% in size
Conditions: yeast TDP-43 toxicity rescue, BacTiter-Glo growth, 24 h; series mostly up to 46.1 µM; growth rescue (activation): at the top concentration
Procedure, shortened: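 TDP-43-expressing yeast, pregrown in raffinose, seeded at OD600 0.02 in galactose medium with compound for 24 hr at 30 deg C. Growth read by BacTiter-Glo luminescence, so rescue of toxicity appears as activation.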

| Compound | growth rescue (activation) |
| --- | --- |
| O=c1nc(N/N=C/c2ccccn2)cn[nH]1 | inactive: -0.134% |
| CC(=O)Nc1cccc(-c2ccnc3c2CC(C(=O)Nc2ccc(F)c(Cl)c2)O3)c1 (centres undefined) | inactive: 13.4% |
| Cc1onc(-c2ccccc2Cl)c1C(=O)N1CC(C)CC(C)C1 (centres undefined) | inactive: 4.06% |
| CCn1nnc(-c2ccc(N)cc2)n1 | inactive: 6.39% |
| CCN1CCN(CC(=O)c2cc(OC)c(OC)c(OC)c2)CC1 | inactive: 0.177% |
| O=C(N/N=C\C=C\c1ccc(Br)cc1)c1ccc2c(c1)OCO2 | inactive: 8.82% |
| Cc1ccc(C)c(S(=O)(=O)NC(CC(C)C)C(=O)O)c1 (centres undefined) | inactive: -15.8% |
| COc1cc(NC(=O)CSc2ccccc2)c(C(=O)O)cc1OC | inactive: -0.803% |
| CCc1ccc(NC(=O)COc2ccc(/C=C(/C#N)c3nc4ccccc4[nH]3)cc2OC)cc1 | inactive: -1.37% |
| O=C(N=C1SCC(=O)N1c1ccccc1)c1ccco1 | inactive: 23.7% |
| O=[N+]([O-])/C(C(Cl)=C(Cl)Cl)=C(/NC1CC1)Sc1ccccc1 | inactive: 11% |
| O=C(Nc1ccccc1)NC1(C(=O)N2CCC(O)CC2)CCCCC1 | inactive: -1.62% |
| Cc1ccc2c(C)nc(Nc3nc(CSc4nc5ccccc5s4)cc(=O)[nH]3)nc2c1 | inactive: -0.96% |
| Cc1ccc(C)c(NS(=O)(=O)c2ccc3c4c(cccc24)C(=O)N3)c1 | inactive: -2.89% |
| Cc1cccc(C)c1OCc1cc(C(=O)N2CCN(c3ccccc3)CC2C)no1 (centres undefined) | inactive: -1.42% |
| O=C(Nc1cccnc1Cl)c1cc(-c2ccccc2O)on1 | inactive: 0.969% |
| COc1ccc(C(=O)NCCCNC(=O)c2cccnc2)cc1OC | inactive: -2.89% |
| CCS(=O)(=O)c1ccc(O)c(NC(=O)NC2CCCCC2)c1 | inactive: 22.7% |
| O=C(N/N=C/c1ccc([N+](=O)[O-])o1)c1ccc(NS(=O)(=O)c2cccs2)cc1 | inactive: -11.5% |
| S=C(Nc1ccc(Cl)cc1Cl)N1CCOCC1 | inactive: 12.3% |
| CCOC(=O)C1(CCCc2ccccc2)CCN(C(=O)C(C)n2cncn2)CC1 (centres undefined) | inactive: 4.71% |
| CCO/C(C)=N/n1c2nc3ccccc3nc2c2c(=O)n(C3CCCC3)c(C)nc21 | inactive: 23.5% |
| CCOC(=O)c1ccccc1NC(=O)CSc1nc(N)cc(=O)[nH]1 | inactive: 29.8% |
| Cc1cc(C)cc(NC(=S)N(Cc2ccc(Br)cc2)Cc2ccc(C(=O)O)cc2)c1 | inactive: 29.8% |
| COC(=O)c1ccc(OCC(O)Cn2cnc3cc(C)c(C)cc32)cc1 (centres undefined) | inactive: 4.41% |
| O=C(NNC(=O)C1CCN(c2ncccn2)CC1)c1ccc(Cl)cc1 | inactive: -5.31% |
| COC(=O)[C@@H](NC(=O)c1ccc2c(c1)S(=O)(=O)c1ccccc1C2=O)C(C)C | inactive: 5.38% |

| Compound | growth rescue (activation) |
| --- | --- |
| C=CCNc1nc(NCc2ccc(NC(C)=O)cc2)c2sc(-c3ccccc3)cc2n1 | inactive: 2.9% |
| CC1CCC2(CC1)NC(=O)N(CC(=O)NCc1ccc(Cl)cc1)C2=O (centres undefined) | inactive: 6.87% |
| Oc1ccc(/C=N/Nc2cc(N3CCCC3)nc(N3CCCC3)n2)cc1O | inactive: 6.12% |
| OCCC1CN(Cc2ccon2)CCN1CCc1ccccc1 (centres undefined) | inactive: 0.172% |
| CC(NC(=O)COC(=O)c1ccc2c(c1)S(=O)(=O)N=C1CCCCCN12)C12CC3CC(CC(C3)C1)C2 (centres undefined) | inactive: -17.5% |
| O=S(=O)(c1ccc(F)cc1)N1CCN(C(=S)NCc2ccccc2)CC1 | inactive: 9.57% |
| CCOC(=O)NC(=O)CN1C(=O)NC2(CCc3ccccc32)C1=O (centres undefined) | inactive: 1.82% |
| CC(C)CN=Cc1c(O)c([N+](=O)[O-])cc2oc3c(c12)CCCC3 | inactive: -92.9% |
| Cc1ccc(C(=O)OCCN2CCN(c3ncc(C(F)(F)F)cc3Cl)CC2)cc1 | inactive: -2.46% |
| FC(F)(F)c1ccccc1/C=N/n1c(COc2ccccc2)n[nH]c1=S | inactive: -0.868% |
| CCC(=O)Oc1ccc(C(=O)Nc2c[nH]c(=O)[nH]c2=O)cc1 | inactive: 8.84% |
| Cc1cccc(OCc2ccc(-c3nc(C#N)c(NCCN(C)C)o3)o2)c1 | inactive: 18% |
| O=S(=O)(NC1=NCCC1)c1cccc(NC(=S)Nc2ccc(OC(F)F)cc2)c1 | inactive: 12.2% |
| O=C(NCCNCc1ccccc1)c1ccco1 | inactive: -37.1% |
| O=C(CSc1nc(CCC2CCCC2)nc2ccccc12)NCc1ccc2c(c1)OCO2 | inactive: 16.9% |
| CN1CCN(C(=O)/C(=C/c2ccco2)NC(=O)c2ccccc2)CC1 | inactive: 14.1% |
| CCOC(=O)NC(=O)CSc1cc(C)c2cc(C)cc(C)c2n1 | inactive: 18.3% |
| C[N+](C)(CC#N)C/C=C\c1ccccc1 | inactive: 4.44% |
| CC1(C(=O)NCCC#N)CCN1C(=O)C1(c2ccccc2)CCCC1 (centres undefined) | inactive: -0.001% |
| COc1ccc(/C(C)=N/NC2=NCCN2)cc1Cl | inactive: 1.51% |
| CCOc1ccc(CCN2C(=O)c3cccnc3C2=O)cc1OCC | inactive: 29.9% |
| Cc1ccc(CNC(=O)CSc2ccsc2[N+](=O)[O-])cc1 | inactive: 9.09% |
| O=C1C2CCCCC2C(=O)N1Cc1ccccc1 (centres undefined) | inactive: 18.7% |
| CN(C)S(=O)(=O)c1cccc(NC(=S)NC(=O)C2CCCCC2)c1 | inactive: -6.09% |
| CCc1ccc(N(CC)C(=O)c2ccc3c(=O)n4c(nc3c2)CCCCC4)cc1 | inactive: 7.37% |
| Cc1ccc(NC(=O)CSc2ncn[nH]2)cc1S(=O)(=O)N1CCOCC1 | inactive: -5.45% |
| Cc1cc(C)n(-c2ccccc2[N+](=O)[O-])n1 | inactive: -9.96% |
